Test results taken from PubChem BioAssay AID686978 (National Center for Advancing Translational Sciences (NCATS), 2013).
Hit rate of the full screen: of about 420,000 compounds, about 64,000 (15%) were called active. Inconclusive means that the source gave no clear call. Such entries were picked first, then a sample of the others. The call rests on the fitted dose curve; in most records, active means well fitted inhibition curve with a large enough effect; inconclusive means small, poorly fitted or top-dose-only effect; inactive means flat fitted curve, though single readings scatter. No potency is given beside an inconclusive call; the fits are too rough.

Test: qHTS for Inhibitors of human tyrosyl-DNA phosphodiesterase 1 (TDP1): qHTS in cells in absence of CPT; further: nearly all actives have a fitted effect of over 55% in size
Details: DT40 Tdp1-/- hTDP1 cells, no CPT, ATP luminescence, 48 h; activity change, negative = growth inhibition: at 46.2 µM (top of the series)
Outline: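 A cellular qHTS used chicken DT40 cells lacking endogenous Tdp1 but carrying stably transfected human TDP1. Compounds were applied without camptothecin, and cell growth kinetics were judged by ATP-dependent luminescence after ≥48 hr.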
On the % scale 0 is the no-effect control and ±100 the full control effect; potency means the concentration at half of the fitted maximal effect; tags describe the fitted curve by direction and shape.

| SMILES | Potency | activity change, negative = growth inhibition |
| --- | --- | --- |
| CN1CCN(c2ccc(-c3cccc(NC(=O)COc4ccc(Cl)cc4Cl)c3)nn2)CC1 | inconclusive [inhibitor, single point] |  |
| CCOC(=O)c1c(SC)[nH]c2c(Cl)cccc2c1=O | inactive |  |
| Cc1cccc(N2CCC(N3CCN(C4CCCCC4)C(CCO)C3)CC2)c1C (stereo unspecified) | inconclusive [inhibitor, single point] |  |
| COc1ccc(-c2cnc3c(NC(C)=O)cc(-c4cccc(NS(C)(=O)=O)c4)cn23)cc1OC | active: 23.1 µM |  |
| CCCCCCNc1ncnc2c1sc1nc(N3CCOCC3)c3c(c12)CCCC3 | inconclusive [inhibitor, single point] |  |
| COc1ccc(NC(=O)Cn2c(=O)n(CC3CCCO3)c(=O)c3ccccc32)cc1 (stereo unspecified) | inactive |  |
| Cc1oc2ccc(O)c(CN3CCN(Cc4ccccc4)CC3)c2c1C(=O)Nc1cccc(Cl)c1C | inactive |  |
| CCCN(C(=O)c1nn(-c2ccc(C)cc2)c(=O)c2c1c1ccccc1n2C)c1ccccc1C | inconclusive [inhibitor, single point] |  |
| FC(F)(F)c1ccc(CN2C[C@@H]3C(c4ccc(C(F)(F)F)cc4)C4(c5cccnc5)CC3(C4)[C@H]2c2ccccc2)cc1 (stereo partly specified) | active: 14.6 µM |  |
| Cc1cccc(OCC(=O)Nc2ccncc2)c1C | active: 8.2 µM |  |
| CCOc1ccc(S(=O)(=O)n2c(C)nc3ccccc32)cc1 | active: 20.6 µM |  |
| Cc1cc(C)c(S(=O)(=O)Nc2nccs2)c(C)c1 | inactive |  |
| COc1ccc(Cc2nc(C)cc(Cl)n2)cc1[N+](=O)[O-] | inactive |  |
| COc1ccccc1N(Cc1cc(=O)[nH]c2ccccc12)C(=O)c1ccccc1 | inconclusive [inhibitor, single point] |  |
| CC(Cc1cccs1)NC(=S)Nc1ccccc1 (stereo unspecified) | inconclusive [inhibitor, single point] |  |
| O=C(Nc1ccc(Oc2ccccc2)cc1)C1CCN(S(=O)(=O)c2ccccc2)CC1 | active: 9.2 µM |  |
| COCCn1c(SCC(=O)Nc2ccc(NC(C)=O)cc2)nc2ccccc2c1=O |  | inconclusive: -33% [inhibitor] |
| COc1cc(OC)c(NC(=O)C2CCN(S(=O)(=O)c3ccc4c(c3)CC(C)N4C(C)=O)CC2)cc1Cl (stereo unspecified) | inconclusive [inhibitor, single point] |  |
| NC(=S)NNc1c(F)c(F)c(F)c(F)c1F | inconclusive [inhibitor, single point] |  |
| C[C@H]1NC(=O)[C@@]2(C)[C@H](c3ccccc3)[C@H]3COc4ccccc4[C@@H]3N2C1=O | inconclusive [inhibitor, single point] |  |
| CN(Cc1cn(Cc2ccccc2)nn1)C1CN(Cc2cn(Cc3ccccc3)nn2)S(=O)(=O)C1 (stereo unspecified) | inconclusive [inhibitor, single point] |  |
| CCOC(=O)CCCNC(=O)CSc1nnc(-c2ccccc2)c(-c2ccccc2)n1 | inconclusive [inhibitor, single point] |  |
| OC(COc1ccc(CNCCc2ccccc2F)cc1)CN1CCCCC1 (stereo unspecified) | inconclusive [inhibitor, single point] |  |
| Cc1cc(NC(=O)c2ccc(Br)c(S(=O)(=O)N3CCCC3)c2)no1 | inconclusive [inhibitor, single point] |  |

| SMILES | Potency | activity change, negative = growth inhibition |
| --- | --- | --- |
| CCOc1ccc(NC(=O)c2cnn3c(C(F)F)cc(-c4ccc(C)cc4)nc23)cc1 | inactive |  |
| COc1ccccc1/C=C/c1nc(C#N)c(NC(C)c2ccccc2)o1 (stereo unspecified) | active: 16.4 µM |  |
| C[C@H](O)[C@@H]1C(=O)N2CCc3ccc(-c4ccccc4)cc3[C@@H]2C[C@@H]1N(C)C(=O)c1ccco1 | active: 14.6 µM |  |
| CN(C)CCCNc1ccc(-c2cc(Nc3cccc(Cl)c3)ncn2)cn1 | inconclusive [inhibitor, single point] |  |
| O=C(Oc1cccc([N+](=O)[O-])c1)c1cc(-c2ccccc2)nc2ccccc12 | inactive |  |
| COc1ccc(CN(C)C(=S)Nc2ccc(Cl)cc2Cl)cc1 | inconclusive [inhibitor, single point] |  |
| CNC(=O)c1c(NC(=O)c2ccc(S(=O)(=O)N3CCCCC3C)cc2)sc2c1CCN(C)C2 (stereo unspecified) | inconclusive [inhibitor, single point] |  |
| C=CCN=Cc1c(C)[nH]n(-c2ccccc2)c1=O | inactive |  |
| CC(=O)Nc1ccc(S(=O)(=O)n2nc(-c3ccc(C)cc3)nc2N)cc1 | inconclusive [inhibitor, single point] |  |
| COc1ccc(N2Cc3cccc(C(=O)N4CCOCC4)c3C2=O)cc1 | inactive |  |
| CC(=O)c1cc(-c2ccc(F)cc2)n(CCC(=O)NCc2ccc(C)cc2)c1C | inconclusive [inhibitor, single point] |  |
| Cc1ccccc1NC(=S)NCc1cccn1C | inactive |  |
| CCOc1ccc(Oc2c(/C=N/NC(N)=O)c(C)nn2-c2ccccc2)cc1 | inconclusive [inhibitor, single point] |  |
| Cc1ccc(C(=O)NC2CCN(Cc3ccccc3)CC2)cc1S(=O)(=O)N1CCOCC1 | inconclusive [inhibitor, single point] |  |
| CCCCCCSc1ccc([C@@H]2[C@H]3C(=O)N(CC)C(=O)[C@H]3[C@]3(C(=O)OC)CCCN23)cc1 | inconclusive [inhibitor, single point] |  |
| COC(=O)c1cc(COC(=O)CNC(=O)c2cccc(C)c2)oc1C | inactive |  |
| C[C@H](CO)N1C[C@H](C)[C@H](CN(C)C(=O)Nc2cccc(F)c2)Oc2cc(C#CC3(O)CCCC3)ccc2S1(=O)=O | inactive |  |
| O=C(NC1CCCc2ccccc21)c1ccc(S(=O)(=O)N2CCOCC2)cc1 (stereo unspecified) | inconclusive [inhibitor, single point] |  |
| Cc1ccc(NC(=O)CN2CCN(C3CCCCC3)C(=O)C2=O)cc1 | inactive |  |
| COC(=O)c1cc(=O)n(CCc2ccc(OC)c(OC)c2)c(=Nc2ccc(F)c(Cl)c2)s1 | inconclusive [inhibitor, single point] |  |
| COC(=O)C1CCCCN1Cc1ccc2c(c1)CN(C(=O)c1cc(C)nc3cc(F)ccc13)CCO2 (stereo unspecified) | inconclusive [inhibitor, partial curve, poor fit] |  |
| N#Cc1ccc(C23CC4(C2)[C@H](CN(P(=O)(c2ccccc2)c2ccccc2)[C@@H]4c2ccccc2)C3c2ccc(Cl)nc2)cc1 (stereo partly specified) | inconclusive [inhibitor, single point] |  |
| O=C(NCCc1ccc(Cl)cc1)c1ccc2nc(N3CCOCC3)sc2c1 | inconclusive [inhibitor, partial curve] |  |
| CCOC(=O)c1[nH]c(C)c(C(=O)Nc2cc(OC)ccc2OC)c1C | active: 0.562 µM |  |

| SMILES | Potency | activity change, negative = growth inhibition |
| --- | --- | --- |
| CCc1ccc(Sc2cc(C(=O)NCCCN3CCCC(C)C3)c3ccccc3n2)cc1 (stereo unspecified) | inconclusive [inhibitor, single point] |  |
| Cc1ccc(-n2ncc(C(=O)N3CCN(C4CCCCC4)CC3)c2C2CCN(C(=O)OC(C)(C)C)CC2)cc1 | inconclusive [inhibitor, single point] |  |
| CNc1nc(N/N=C/c2ccc([N+](=O)[O-])cc2)nc(Nc2ccccc2)n1 | inconclusive [inhibitor, single point] |  |
| CSc1ccc(/C=C/C(=O)c2c(O)cc(C)oc2=O)cc1 | inconclusive [inhibitor, single point] |  |
| COc1ccc(Cl)cc1NC(=O)CN1CCC(n2nnc3cc(C)ccc32)CC1 | active: 23.1 µM |  |
| O=C(Cn1cccc1C(=O)c1ccccc1)NCc1ccccn1 | inactive |  |
| CC(C)OC(=O)CC(=O)CSc1nc2c(cc1C#N)CCC2 | active: 8.2 µM |  |
| COC(=O)NC1c2ccccc2Oc2ccc(C)cc21 (stereo unspecified) | inconclusive [inhibitor, single point] |  |
| CC(C)Cc1nc2oc3c(Cl)ncnc3c2c2c1CCC2 | active: 18.4 µM |  |
| CCOC(=O)N1CCC(N(CCOC)C(=O)Nc2ccc(Cl)c(Cl)c2)CC1 | active: 10.3 µM |  |
| COCC(C)Nc1ncnc2c1cnn2-c1ccc(Cl)cc1 (stereo unspecified) | inconclusive [inhibitor, single point] |  |
| CC(C)NC(=O)c1nn(C)c2c1CS(=O)(=O)c1ccccc1-2 | inactive |  |
| Cc1ccc(NC(=O)Cn2nc(C)c(S(=O)(=O)N(C)C)c2C)cc1C | inconclusive [inhibitor, partial curve] |  |
| CCOC(=O)c1ccc(NC(=O)C2CC(O)CN2S(=O)(=O)c2ccc(C)cc2)cc1 (stereo unspecified) | inconclusive [inhibitor, single point] |  |
| CC(C)Oc1ccc(S(=O)(=O)N2CCOCC2)cc1NC(=O)C1=NN(c2ccccc2)C(=O)CC1 | inconclusive [inhibitor, single point] |  |
| c1ccc2c(-c3c[nH]c4ccccc34)c3ccccc3nc2c1 | active: 16.4 µM |  |
| Cn1c(C(=O)OC(C(=O)NC(C)(C)C)c2cccnc2)cc2sccc21 (stereo unspecified) |  | inconclusive: -30.1% [inhibitor] |
| CCn1c(CSc2nc(C)cs2)nc2cc(S(=O)(=O)N(C)C)ccc21 | inactive |  |
| Cc1ccc(C(=O)N/N=C/c2ccoc2)cc1C | inactive |  |
| CCCN(CC1COc2ccccc2O1)C(=S)Nc1ccc(C)cc1 (stereo unspecified) | inconclusive [inhibitor, single point] |  |
| Cc1sc(NC(=S)NC(=O)c2ccco2)c(C#N)c1C | inactive |  |
| CNC(=O)c1[nH]cnc1C(=O)Nc1ccc(C)cc1 | inactive |  |
| C[C@@H]1CCCCO[C@H](CN(C)C(=O)Cc2ccccc2)[C@H](C)CN([C@@H](C)CO)C(=O)c2cc(NC(=O)Nc3ccc(F)cc3)ccc2O1 | inactive |  |
